± gives the standard deviation of the averaged measurements. The list shows a part of the results.
System: PfAP2-EXP AP2 domain (GST-tagged)
Assay: gcPBM binding intensity (ln(normalized median fluorescence intensity)); higher = stronger DNA binding
Procedure, shortened: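 DNA-binding domains from P. falciparum, fused to GST and produced in E. coli, were put on an Agilent 4 × 180k double-stranded probe array for 1 h in 1× PBS holding 1% milk, 0.2 mg/ml BSA, 0.5% salmon testes DNA and 0.03% Triton X-100. Probes were primer-extended, 36 bp long and drawn from intergenic genomic regions, with negative controls included. After Alexa488 anti-GST antibody detection and a 488 nm scan, binding intensity was set as the highest Masliner-normalised natural-log median intensity across replicate spots of either probe orientation.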

Sequence | gcPBM binding intensity (ln)
TTTATATTAATTGATGTGCACTGAAATATTTGTCCA [GTGCAC_site9655] | 8.54 ± 0.22
ACCCTATAGGTAACTACACACCGCATATTGTTTACT [CACACA_site7436] | 8.8 ± 0.55
TTATAAATAAAAAATACACACATATATTTATTTATA [CACACA_site6242] | 8.11 ± 0.5
ATAATATATGAAAGTGGTACACAAAGGAAAATAAAA [XGTACX_site333] | 9.14 ± 0.57
TGTAGTCTGGAGAAAAGTACACAGTATCCGGTAACT [XGTACX_site4934] | 8.6 ± 0.39
AATAATAAATCAAACTGTACATATATTTTCAATCTA [XGTACX_site3344] | 8.2 ± 0.33
TTTTTTTTTTTGTTCACACATATATATATATATATA [CACACA_site5376] | 10.2 ± 0.37
TATACATACACATACACACATACACCCATACACATA [CACACA_site1746] | 8.77 ± 0.45
TTCTTCTAATCCTTTTATCTCATTAAAAAAATATAA [CACACA_negctrl_site12] | 8.56 ± 0.36
ACGTGTATTTATTTAGTGCACTTTATATTTTTTCTT [GTGCAC_site9426] | 9.72 ± 0.49
GGTTATATATTTTTTGCACACCAAAAAAGAGAATAT [CACACA_site2731] | 8.68 ± 0.3
ATCCTAATATTGAACTGTACCTTATATGTTATTATA [XGTACX_site1014] | 8.77 ± 0.42
TATATATATATATATACACACATATATACATATATA [CACACA_site4043] | 10.1 ± 0.38
AATACATATAATACAACACACAAGTAATATAAACCT [CACACA_site3597] | 8.87 ± 0.53
GGATATAACAAACACACACACACATATATATATATT [CACACA_site4141] | 8.59 ± 0.19
TTTAAATGAAAAAAAGGTACACAATATTATTCTTAT [XGTACX_site8612] | 8.37 ± 0.33
AATACTTATTATGAAACACACACCAAAACTACATAA [CACACA_site270] | 8.83 ± 0.69
AAGAAAAAAAAAAATATATATACATATATATATATA [TGCATGCA_negctrl_site485] | 9.95 ± 0.23
AAAAAAAAAAAACACACACACACACTAGTATATAAA [CACACA_site4783] | 8.53 ± 0.61
AATGTATATATATATATATATATATATATTTATTTA [CACACA_negctrl_site113] | 8.43 ± 0.14
AAGAAAATAGAAAATACACACAGCAAACAGAGGAAT [CACACA_site3785] | 9.1 ± 0.61
ATATATATATATTTATGTACATATATTTTTTTTTTT [XGTACX_site8558] | 9.73 ± 0.28

Sequence | gcPBM binding intensity (ln)
ATGAAACATGTATATTGTACTCTGGATCAATTTAAT [XGTACX_site6413] | 8.29 ± 0.31
ATATTTAATTAAAAGAGTACTTAAATAAAATAAATG [XGTACX_site2149] | 8.43 ± 0.3
AAGCCTTAAAAGGAAAGTACGTATATATATATATAT [XGTACX_site8559] | 10.1 ± 0.43
AATAAATAAATACATCTCAGTATATAAACAAACAAA [CACACA_negctrl_site1604] | 8.62 ± 0.43
AAATTTATTATATATACATGCAATCATAAATAATGT [TGCATGCA_site539] | 8.8 ± 0.3
TAAGTATAAAAAAATAGTACAATTATGAAATATCGT [XGTACX_site2529] | 8.87 ± 0.52
GGTCTAACAACATGCGCACACACATGAATATTCATA [CACACA_site1539] | 9.05 ± 0.13
TTTTTTTTTTTTTTATGTACACATCTAAAAAAAAGG [XGTACX_site2067] | 8.34 ± 0.38
GCCCCCTAAAAAATTACACACGAAAAAAATGAATTT [CACACA_site9128] | 9.91 ± 0.35
TTTAACAAGTTAAACACACATACATATATACATATA [CACACA_site2536] | 8.31 ± 0.42
ATTTGTTCCTTGGGAGTTTACTTTTTTTTAATTTTA [CACACA_negctrl_site638] | 8.74 ± 0.44
TTAAAAAAAAAACACACACACATACCCATATATATA [CACACA_site5768] | 8.74 ± 0.33
TATAAAAATATATATATATATATATATATAATATGT [TGCATGCA_negctrl_site85] | 8.54 ± 0.13
TTCTTTTTAATTAATACACACACACCCATATATATA [CACACA_site8719] | 8.83 ± 0.42
AAAAAATTAGATTATGCACACACACTAATAAATAAT [CACACA_site8604] | 8.62 ± 0.27
AACAAAATTGAAGGAACACACATACATATTTATATA [CACACA_site6227] | 8.65 ± 0.55
CATATAAATACATGCACACAAAAATATCAATACATT [CACACA_site2392] | 8.94 ± 0.29
TTTATTTAAGAAAAATGTACAGGTTCATTTCATAAT [XGTACX_site27] | 8.2 ± 0.17
GAAAAATTAAAACCTACACACACATTTAAAAAAAAA [CACACA_site9005] | 8.46 ± 0.49
ATAAATACATATGTGTGTACACATTATATATATATA [XGTACX_site1486] | 9.68 ± 0.34
TATATATTACATACATGTACCCAAAAAAAAAAAAAA [XGTACX_site1168] | 8.42 ± 0.48
ATATATATATAATCATCACACATGCAGCCCTGATGA [CACACA_site5500] | 9.77 ± 0.19
